Source: US6022851A, “Lantibiotic related to actagardine, and processes for the preparation and use thereof” (priority 1997, dated 2000)

Test system: E. faeccium M78L
Type: cell-based
Details: incubation time 24 h
Source text: Tables 4 to 6 show the in-vitro antibacterial activity (MIC values[μg/ml]) of the actagardine (Acta) and of the compounds according to the invention.

Work on “di-Boc-Lys(0)-actagardine [Boc--Lys--Acta]” yielded an MIC values of 10 µg/mL.
